From ChEMBL document CHEMBL4888484, “Replenishing the malaria drug discovery pipeline: Screening and hit evaluation of the MMV Hit Generation Library 1 (HGL1) against asexual blood stage Plasmodium falciparum ,using a nano luciferase reporter read-out” (2022) come the findings set out here.

Hit rate of the full screen: of about 150,000 compounds, about 540 (0.36%) showed an effect of 50% or more. The list shows a part of the results.

For the experiment, the system named is Plasmodium falciparum. As to the kind of experiment: Primary screen in NF54 nanoGlo assay, in single point, at 2uM, 72h; a lower Z score goes with more inhibition. Type of experiment: functional, Erythrocyte. The following applies: timepoint 72 hour.
The term % Inhibition denotes the change of the read-out against control, counted positive when it falls. In the case of `Cc1ncn(Cc2ncc(-c3cccs3)o2)c1C`, the “% Inhibition” value is recorded as -11% and the Z score was 2.05.
`C(=C\c1cccc(-n2cnnc2)c1)/c1ccccc1`: the “% Inhibition” value is on record as -14% and the Z score turned out to be 1.74.
On the same counts, the results for `CC(=O)N1CCN(C(=O)Nc2ccccc2)C[C@H]1C(=O)N[C@@H](CC1CCCCC1)C(N)=O` are 0% and -0.07.
Consider `CCn1nc(C)c(CN[C@@H](C)c2cccc(-n3cccn3)c2)n1`, for which the “% Inhibition” value turned out to be 4% and the Z score was -0.7.
On the same counts, the results for `c1ccc2cc(CN3CC[C@@]4(CCCNC4)C3)ccc2c1` are -6% and 0.78.
With `COc1cc(OC)cc(-c2nc(-c3nnn(-c4ccc(F)cc4)c3C)no2)c1`, the “% Inhibition” value is listed as -15% and the Z score was found to be 2.47.
On the same counts, the results for `Cc1csc(S(=O)(=O)N2C[C@@H]3CC[C@H]2CN(Cc2ccccc2)C3)c1` are -1% and 0.14.
For `Cc1nc(-c2cccc(NC(=O)c3ccc(N4CCOCC4)nn3)c2)cs1` the same measures were -13% and 1.77.
On the same counts, the results for `Cc1ccc(F)c(NC(=O)[C@H]2CN(S(=O)(=O)C3CC3)CC23CCCCC3)c1` are -8% and 1.19.
`CCN1C(=O)c2cc(C(=O)N3CCN(C)CC3)nn2C[C@@]1(C)C(=O)NC1CCCC1`: the “% Inhibition” value is -13% and the Z score was 2.03.
On the same counts, the results for `Cc1nccn1CCNC(=O)[C@]1(C)COCc2nnc(C3CCCC3)n21` are -5% and 0.55.
In the case of `CC1CCN(S(=O)(=O)c2ccc(CNC(=O)CCC3CCCC3)s2)CC1`, the “% Inhibition” value is reported as -19% and the Z score worked out at 2.98.
For `CC1CN(C(=O)NCc2cc(Cl)sc2Cl)CC1(C)CO` (stereo not drawn) the same measures were -16% and 2.07.
For `Cc1cc(OC2CCN(C(=O)Cc3cccs3)CC2)nc(C)n1` the same measures were -9% and 1.62.
On the same counts, the results for `O=C(c1ccc(=O)[nH]n1)N1CCC[C@H](Oc2ncc(Cl)cn2)C1` are 8% and -1.06.
As for `c1cnn(Cc2noc3c2CCCC3)c1`, the “% Inhibition” value is listed as -3% and the Z score is listed as 0.34.
For `CC1=CN(c2ccc(Br)cc2)C(=O)N(c2ccccc2)N=C1C` the same measures were -45% and 5.24.
On the same counts, the results for `O=C(c1cnn(-c2ccccc2)n1)N1CC(Nc2cccnn2)C1` are -8% and 0.9.
`C[C@@H]1[C@H](C(=O)Nc2cccc(NC(N)=O)c2)CCCN1C(=O)OC(C)(C)C`: the “% Inhibition” value is -6% and the Z score is on record as 0.92.
On the same counts, the results for `CCOCC(=O)NCCn1ccc(-c2cnccn2)n1` are -12% and 1.98.
For `Cc1nnc([C@H]2CCN(Cc3cccc(C#N)c3)C2)o1` the same measures were -6% and 0.92.
Regarding `Cc1cccc(C)c1NC(=O)CN(CC(=O)Nc1c(C)cccc1C)Cc1nc(-c2cccnc2)no1`, the “% Inhibition” value is -9% and the Z score is recorded as 1.03.
With `C#CCN1CCC(C(=O)N(CCC#N)CCC(C)C)CC1`, the “% Inhibition” value is -10% and the Z score is on record as 0.97.
On the same counts, the results for `COCc1cccc(CN(CCO)C2CCC(C)C2)c1` (stereo not drawn) are -3% and 0.51.
For `Nc1ncnc(NC2CCCC(O)C2)c1Cl` (stereo not drawn) the same measures were -3% and 0.61.
For `O=C(Nc1ccccc1-c1ccco1)N1CCN[C@@H]2CS(=O)(=O)C[C@@H]21` the same measures were -8% and 1.22.
Consider `CNc1snc(C)c1C(=O)N[C@H]1CCc2ccccc21`, for which the “% Inhibition” value was determined as 19% and the Z score is reported as -3.67.
For `Cc1ccnc(Oc2ccc(NC(=O)c3cccc4cc[nH]c34)cc2)n1` the same measures were -10% and 1.56.
For `O=C(C1CCCC1)N1C[C@H](O)[C@@H](N2CCOCC2)C1` the same measures were -1% and 0.09.
On the same counts, the results for `COC(=O)c1ccc(CN2C(=O)CN(C3CCCC3)C2=O)c(F)c1` are -10% and 1.37.
For `NC(=O)N1CCCN(c2nc(C3CC3)nc3scc(-c4ccccc4)c23)CC1`, the “% Inhibition” value is given as 3% and the Z score is -0.41.
For `CCn1c([C@H]2CCCNC2)nn(Cc2ccc(C(F)(F)F)nc2)c1=O` the same measures were 4% and -0.65.
Consider `C[C@@H]1CCC2C(C)(C)[C@H](O)[C@H](O)C[C@]2(C)[C@@]12Cc1c(O)cc3c(c1O2)CN(CCCC(=O)O)C3=O` (stereo partly drawn), for which the “% Inhibition” value is on record as 29% and the Z score is listed as -3.25.
On the same counts, the results for `COCc1nc(CNc2cccc3c2CN([C@@H](C)C(C)C)C3)no1` are -7% and 1.27.
For `Cc1ccc(S(=O)(=O)N2COCC2(C)C)cc1` the same measures were -8% and 0.93.
For `COCCn1c(=O)c2cc(C(=O)Nc3ccccc3)nn2c2ccccc21` the same measures were -12% and 1.22.
With `O=C(Nc1ccc2c(c1)C(=O)NC2)c1ccc(O)nc1`, the “% Inhibition” value is recorded as -7% and the Z score is listed as 0.69.
On the same counts, the results for `O=C(Cc1ccc(N(Cc2cccc(F)c2)C(=O)C2CCCC2)cc1)NCc1cccnc1` are 0% and -0.03.
For `CC(C)NC(=O)c1cncc(Br)c1` the same measures were 1% and -0.14.
For `Cc1nn(Cc2nnc(-c3ccc(C#N)cc3)o2)c(C)c1CCO` the same measures were -5% and 0.65.
For `COC(=O)c1ccc(N2CC(C)OC(C3CC3)C2)c(C#N)n1` (stereo not drawn), the “% Inhibition” value is recorded as -10% and the Z score is on record as 1.09.
On the same counts, the results for `COc1cc(OC)cc(S(=O)(=O)N[C@H]2CCCC[C@@H]2O)c1` are -3% and 0.32.
On the same counts, the results for `CC(NC(c1ccc(Cl)cc1)C1CC1C)c1ccc(F)cn1` (stereo not drawn) are -2% and 0.31.
On the same counts, the results for `Cc1ccc(-c2c[n+](CC(=O)c3ccccc3)c(N)n2C)cc1C` are -6% and 1.07.
Turning to `CCN(C)C1(CNc2nccc(NC)n2)CCCCC1`, the “% Inhibition” value turned out to be 2% and the Z score was -0.23.
On the same counts, the results for `C[C@@H](C(=O)Nc1ccccc1)N1CCN(Cc2ccccn2)CC1` are 2% and -0.22.
On the same counts, the results for `Cc1nc(C(=O)Nc2cccnc2)cs1` are 4% and -0.78.
On the same counts, the results for `O=C(Nc1ccc(F)c(-c2nnc(-c3ccccc3)o2)c1)Nc1ccc(F)cc1F` are -5% and 0.72.
For `CS(=O)(=O)NCCn1ccc(C(F)(F)F)n1`, the “% Inhibition” value is recorded as -14% and the Z score amounted to 1.73.
For `CC(C)CN1C[C@H](CNC(=O)c2n[nH]c3c2CCc2ccccc2-3)OCC1=O` the same measures were 3% and -0.39.
For `Cn1nnc2c(C(=O)Nc3nccs3)ccnc21` the same measures were -9% and 1.55.
For `Cc1ccc(S(=O)(=O)[C@@H](CNC(=O)c2ccco2)c2cccnc2)cc1` the same measures were -12% and 1.8.
Take `COCCCCNC(=O)N1CCC[C@H]1c1ccc2c(c1)OCCO2`: the “% Inhibition” value was 6% and the Z score is given as -0.91.
For `CN1CCCC2(CCN(C(=O)c3ccncn3)CC2)[C@H]1C(=O)N1CCCC1` the same measures were -1% and 0.2.
